Out of some 45,000 compounds screened, about 65 (0.1%) were called active. Calls follow the shape of the dose curve; as a rule, active = well fitted activation curve with a large enough effect; inconclusive = small, poorly fitted or top-dose-only effect; inactive = no such curve, though single readings can be large or run the other way. The list shows a part of the results.
Molecular target: Galactocerebrosidase (Homo sapiens) (UniProt P54803)
Test: A Novel Cell-Based Assay to Identify Small Molecules for B -Galactocerebrosidase; also: 0% is about no effect; nearly all actives have a fitted effect of over 65% in size
Settings: 145M-Twi-hGALC-G270D cells (Twitcher mouse brain line with human GALC G270D), HMU-beta-Gal fluorescence, 48 h; series mostly up to 57.5 µM; activation: at the top concentration
How it was run: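 Fluorescence readout: HMU-β-gal cleavage by mutant GALC (0.1 mM final, citrate/phosphate pH 5.2 with 1 mg/mL taurocholate), stopped with carbonate/bicarbonate plus Triton X-100. Cells: murine Twitcher 145M-Twi expressing human G270D GALC; qHTS for activators.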

UniProt P54803, sequence (P54803 whole entry, looked up): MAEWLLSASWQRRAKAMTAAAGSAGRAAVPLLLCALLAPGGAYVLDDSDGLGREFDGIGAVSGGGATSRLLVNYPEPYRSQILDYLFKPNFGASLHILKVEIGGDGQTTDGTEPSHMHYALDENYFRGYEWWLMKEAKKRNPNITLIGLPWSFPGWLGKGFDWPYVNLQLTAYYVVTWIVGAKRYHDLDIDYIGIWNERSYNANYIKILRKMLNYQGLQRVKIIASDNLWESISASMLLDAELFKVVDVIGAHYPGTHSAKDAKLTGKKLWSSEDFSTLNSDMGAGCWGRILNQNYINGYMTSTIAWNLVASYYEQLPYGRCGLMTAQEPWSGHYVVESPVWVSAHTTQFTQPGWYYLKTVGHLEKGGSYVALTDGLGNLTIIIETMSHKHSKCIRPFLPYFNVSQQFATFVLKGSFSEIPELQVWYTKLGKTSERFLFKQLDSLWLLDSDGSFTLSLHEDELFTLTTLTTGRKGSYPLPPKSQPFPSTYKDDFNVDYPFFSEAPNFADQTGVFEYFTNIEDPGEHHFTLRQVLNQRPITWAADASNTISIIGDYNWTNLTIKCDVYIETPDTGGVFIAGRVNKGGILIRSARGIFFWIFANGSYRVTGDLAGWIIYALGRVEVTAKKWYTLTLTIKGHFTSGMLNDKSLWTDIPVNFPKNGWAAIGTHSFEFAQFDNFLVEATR

activation, inactive:
Cc1ccc(-n2ncc(C(=O)N3CCN(Cc4ccccc4)CC3)c2C2CCN(C(=O)OC(C)(C)C)CC2)c(C)c1 7.74%, CC(C)(C)OC(=O)N1CCC(c2c(C(=O)NCc3ccco3)cnn2-c2ccc(F)cc2)CC1 7.52%, CCOC(=O)c1ccccc1NC(=O)Cn1c(=O)n(Cc2ccccc2)c(=O)c2c(C)c(C)sc21 -30.9%, CCC(=O)Oc1ccc(-c2nc3ccccc3c(=O)o2)cc1 5%, CCN(c1ccc(Cl)cc1)S(=O)(=O)c1nnc(NC(=O)C(C)C)s1 -15.1%, CN1CCC(Nc2ncc3ncnc(Nc4ccc(F)c(Cl)c4)c3n2)CC1 -24.8%, O=C1C(c2[nH]c3ccccc3c2O)=Nc2ccccc21 -17.6%, COc1ccc(-c2nnc(SCC(=O)Nc3ccc(F)cc3)s2)cc1 -9.38%, O=c1c2sc3ccccc3c2n(Cc2ccccc2F)c(=O)n1CCc1ccccc1 4.18%, CN(C)c1ccc(C(CNS(=O)(=O)c2ccc(Br)cc2)N2CCOCC2)cc1 (configuration not stated) -17.2%, CN(C)c1ccc(NC(=O)Cn2c(SCc3ccccc3F)nc3cccnc32)cc1 -15.8%, Cc1ccc(C)c(S(=O)(=O)c2nnn3c2nc(NCc2ccc4c(c2)OCO4)c2sccc23)c1 -6.73%, Cc1c(C)n(C)c2ccc(C(=O)NCCCN3CCCCC3)cc12 -24.7%, COc1ccc(NC(=O)C2=C(C)Nc3nc(SCc4ccccc4)nn3C2c2cc(OC)ccc2OC)cc1 (configuration not stated) -5.38%, Cc1ccc(-c2c(C(=O)NCCc3ccc(Cl)cc3)oc(=O)c3ccccc23)cc1 -2.75%, Cc1cccc(N2C(=O)CCSC23C(=O)N(Cc2ccc(F)cc2)c2ccccc23)c1 (configuration not stated) 0.52%, O=C(c1ccc2c(Cl)c3c(nc2c1)CCCC3)N1CCN(c2cccc(Cl)c2)CC1 -35.6%, CCc1ccc(-c2ccc(C(=O)Oc3ccc(Br)cc3)cc2)nc1 -11.3%, Cc1ccc(S(=O)(=O)c2nc(-c3ccc(Cl)cc3)oc2N2CCCCCC2)cc1 -11.8%, CCN(CC)S(=O)(=O)c1ccc(C(=O)N=c2sc3cccc(OC)c3n2C)cc1 -6.57%, COc1ccc(CNc2ncnc3c2c(-c2ccccc2)cn3-c2ccccc2)cc1 -12.3%, CN1CC(=O)N(CC(=O)Nc2ccc(Cl)c(C(F)(F)F)c2)c2ccccc2C1=O -15.4%, Cc1ccc(-c2nc(SCc3ccc(Br)cc3)n3[nH]c(=O)cc3n2)cc1 3.75%, Cc1c(-c2cccc(NC(=O)C(C)(C)C)c2)nc2ncccn12 -5.4%, Cc1nnc(SCC(=O)NCc2ccccc2F)c2nn(-c3ccc(Cl)cc3)c(C)c12 -26.5%, Cc1ccc(Cn2ccc(NC(=O)c3cc(-c4ccc(Cl)c(Cl)c4)on3)n2)cc1 -18.5%, COCCc1nn2c(=O)cc(COC(=O)c3ccc(C(C)(C)C)cc3)nc2s1 -19.7%, CCC1CN(C(=O)N2CCC(C(=O)NCc3cccs3)CC2)c2cc(C)ccc2O1 (configuration not stated) -16.5%, COc1ccccc1CNC(=O)c1cccc(Nc2nc3ccccc3n3nnnc23)c1 -19.5%, Cc1ccc2nc(N3CCN(c4cccc(C)c4C)CC3)c3nnnn3c2c1 -8.95%, CC(C)(C)C(=O)Nc1c(C(=O)N2CCN(c3ccc(F)cc3)CC2)oc2ccccc12 -8.69%, COc1ccc(NC(=O)Cc2csc(C)n2)cc1 -10.7%, O=C(CC1(O)C(=O)N(CCc2ccccc2)c2ccc(Br)cc21)c1ccccc1O (configuration not stated) -12.7%, CCOc1ccc(-c2cc(C(=O)NCc3ccccc3)c3c(-c4ccc(CC)cc4)[nH]nc3n2)cc1 -7.39%, O=C(COc1ccc(F)cc1)Nc1ccc2nc(SCc3ccccc3)sc2c1 -8.35%, CCc1cccc(NC(=O)CSc2ncc3c(n2)-c2ccccc2N(Cc2ccccc2C)S3(=O)=O)c1 -1.37%, Cc1ccccc1Nc1c2c(nc3nncn13)CCC2 -7.71%, Oc1ccc(CCNCCCCCCNCCc2ccccc2)cc1O -14.4%, CC(=O)c1ccc(NC(=O)NCCc2c[nH]c3ccccc23)cc1 -5.45%, CC1CCN(CCNC(=O)c2ccc(Cn3c(SCc4ccccc4)nc4cccnc43)cc2)CC1 -16.2%, Cc1cccc(-c2nc3scc(CCNC(=O)c4ccccc4Cl)n3n2)c1 -25.1%, CCOC(=O)C1CCN(S(=O)(=O)c2cc(-c3cc(C)no3)ccc2C)CC1 -15.8%, CCCCCn1c(=O)[nH]c2cc(C(=O)Nc3ccc(F)cc3)ccc2c1=O -9.31%, CC(C)c1nn2c(=O)cc(COC(=O)c3ccc(NC(=O)CCc4ccccc4)cc3)nc2s1 -4.57%, Cc1cccc(NC(=O)CSc2nnc(CNC(=O)c3c(F)cccc3Cl)o2)c1C -16.1%, CCc1cccc(C)c1NC(=O)CSc1nnc(N)s1 1.2%, O=C(Cn1c(=O)nc(-c2ccccc2)c2ccccc21)NCCCc1ccccc1 -11.5%, COc1ccc(CCNC(=O)CS(=O)Cc2nc(-c3ccc(C)cc3)oc2C)c(OC)c1 (configuration not stated) -10%, COc1ccc(CCNC(=O)C(=O)NCC(c2ccco2)S(=O)(=O)c2ccccc2)cc1OC (configuration not stated) -18.8%, Nc1ccc(S(=O)(=O)Nc2cnc3ccccc3n2)cc1 -12.1%, Cc1ccccc1N1CCN(S(=O)(=O)c2nnc(NC(=O)c3ccc(Cl)cc3)s2)CC1 -4.11%, CCOc1ccccc1NS(=O)(=O)c1cnc(N)nc1 -3.55%, CCOc1ccc(NC(=O)c2ccc(F)c(S(=O)(=O)NCc3ccc4c(c3)OCO4)c2)cc1 -11.1%, CNC[C@H](O)[C@@H](O)[C@H](O)[C@H](O)CO -13.7%, COc1ccc(-n2c(SCc3ccccc3F)nc3c([nH]c4ccccc43)c2=O)cc1 -11.4%, O=C(NC1CC(=O)N(c2ccc(Cl)cc2)C1)c1ccc(S(=O)(=O)N2CCCC2)cc1 (configuration not stated) -6.66%, Cc1oc2ncn(CC(C)C)c(=O)c2c1C(=O)NCCCN(Cc1ccccc1)C(C)C -12.2%, CCOc1ccc(NC(=O)CSc2nnc(-c3ccc(C)cc3)c(-c3ccc(C)cc3)n2)cc1 -10.1%, Cc1ccccc1CSc1nnc2[nH]c(=O)cc(C)n12 -9.53%, O=C(NCCCc1nc2ccccc2n1Cc1ccc(Cl)cc1)c1ccco1 -2.76%, O=C(Cn1cc(S(=O)(=O)Cc2ccc(F)cc2)c2ccccc21)NCc1ccccc1Cl -11.3%, CCCC12CN3CC(C)(CN(C1)C3c1cn(C)c3ccccc13)C2=O (configuration not stated) -4.89%, CCc1cccc(NCc2ccccc2-c2nnc(-c3ccccc3Cl)o2)c1 -11.2%, CC(=O)c1ccc(NC(=O)C2CCC(CNS(=O)(=O)c3ccc4c(c3)CCCC(=O)N4)CC2)cc1 (configuration not stated) -8.51%, CSc1nn(Cc2ccc(Br)cc2)c(N(C(C)=O)C(C)=O)c1S(=O)(=O)c1ccccc1 -7.57%, NCCCC(O)(P(=O)(O)O)P(=O)(O)O -17.5%, CCn1c(CN2CCOCC2)nc2cc(NC(=O)c3cc(OC)c(OC)c(OC)c3)ccc21 -10.4%, CCCCSCCCNC(=O)C1CCC(CNS(=O)(=O)c2ccccc2)CC1 (configuration not stated) 13.1%, CCc1ccccc1NC(=O)C1CCCN(c2nnc(-n3c(C)ccc3C)s2)C1 (configuration not stated) -12.8%, COc1ccccc1N1CCN(C(=O)Cc2c(C(=O)O)c(C)cn2C)CC1 -6.26%, COc1ccc(-c2cc(C(=O)NCc3ccccc3)c3c(-c4ccccc4)[nH]nc3n2)cc1 2.64%, CC1CCN(C(=O)Cn2ncc3c4ccccc4n(Cc4ccc(Cl)cc4)c3c2=O)CC1 -13.8%, O=C(Nc1ccc(F)cc1F)c1ccc2c(=O)n3c(nc2c1)CCCCC3 -1.05%, CCOc1ccc(CCNC(=O)c2ccc3nc(CC)c(CC)nc3c2)cc1 -21.5%, COc1cccc(-n2c(=O)c3sc4ccccc4c3n(CC(=O)Nc3cccc(Cl)c3)c2=O)c1 2.35%, Fc1ccc(CNc2nc3ccc(Cl)cc3n3nnnc23)cc1 0.621%, Cc1c(C(=O)N(C)c2cccc(C(F)(F)F)c2)sc2nc3n(c(=O)c12)CCCCC3 -5.77%, CCOc1ccc(OCC(=O)Nc2c(C(=O)Nc3ccc(C)cc3)oc3ccccc23)cc1 -9.66%, C=Cc1ccc(Cn2c(=O)n(-c3cccc(C)c3)c(=O)c3c2c2cc(C)ccc2n3C)cc1 2.48%, CCSc1ncc(Cl)c(C(=O)N2CCN(c3ccc(OC)cc3)CC2)n1 -10.5%, O=C1C(CCS(=O)c2ccccc2)C(=O)N(c2ccccc2)N1c1ccccc1 (configuration not stated) -15.3%, Cc1ccc(S(=O)(=O)c2c(C)nn(-c3ccccc3)c2OC(=O)c2ccccc2F)cc1 -10.2%, CCN(CC)c1ccc(NC(=O)C2COc3ccc(OC)cc3C2)c(C)c1 (configuration not stated) -14.3%, COC(=O)N[C@H](C(=O)N[C@@H](Cc1ccccc1)[C@@H](O)CN(Cc1ccc(-c2ccccn2)cc1)NC(=O)[C@@H](NC(=O)OC)C(C)(C)C)C(C)(C)C -7.18%, O=C(Nc1ccc2c(c1)N(C1CCCC1)C(=O)c1ccccc1S2)c1ccc(F)cc1 -10.8%, CCN(CC)CCCNC(=O)c1ccc2nc(CCc3ccccc3)oc2c1 -15%, O=S(=O)(c1cccc(Cl)c1)c1nnn2c1nc(NC1CCCCCC1)c1sccc12 -13.4%, Cc1cc(C)c(/C=C/c2onc(C)c2S(=O)(=O)N2CCC(C(=O)N3CCN(c4ccc(Cl)cc4)CC3)CC2)c(C)c1 -17.3%, Cc1ccc(NC(=O)Cn2c(C)cc(C)c(C#N)c2=O)cc1F -14.9%, Cc1ccc(C(=O)Nc2nc3n(n2)C(c2ccccc2)C=C(c2ccccc2)N3)cc1 (configuration not stated) -9.79%, CN(CC(=O)Nc1ccc(F)cc1F)S(=O)(=O)c1ccc(C(=O)N2CCOCC2)s1 -22%, CC1CCc2onc(C(=O)N3CCN(c4cccc(C(F)(F)F)c4)CC3)c2C1 (configuration not stated) -28.9%, COc1ccc(-c2nc3ccccc3s2)cc1NC(=O)c1cc2ccccc2o1 -11.2%, NC(=O)OCC(COC(N)=O)c1ccccc1 -18.4%, Cc1ccc(NC(=O)CCNS(=O)(=O)c2cccc3nsnc23)cc1 -4.64%, O=C(Cc1csc2ccccc12)NCc1ccccc1F 1.6%, CCOc1ccc(-c2nc(SCC(=O)Nc3ccc4c(c3)OCCO4)c(-c3ccc(F)cc3)[nH]2)cc1 -17.3%

Source: PubChem BioAssay AID1159614 (National Center for Advancing Translational Sciences (NCATS), 2016)
